# This is one part of the list.
# B1: rCnSL-proB (Clitocybe nebularis) (protein)
# chain: PTFSPIFALLAFLPFGTLASLLPQTQLVFRINPNLPGPNDVFVGYRGTNNVVGAIYERDGIKDTPMNNGADAELGPGSYITDDLFTAQIFASGSAGNNPGTTATVCKIYADGVQWRGAPKGYLPVLYFGNGQAAEQTRQTYLQGLDIPGTAIRFANLAKTPNQGPTAPRQMVVPSGGLQTLLKASCFPANHAALPQVLSYFNVRAALPPGWNIRTGPEFPNWTN
# Key:
# Assay in all cases: glycan array binding signal (z-score within array); higher = stronger binding
# Details in all cases: glycan notation: IUPAC condensed, linker removed
# [1] = molecular target: GlcNAc(b1-4)GlcNAc(b1-4)GlcNAc(b1-4)GlcNAc(b1-4)GlcNAc(b1-4)GlcNAc
# Procedure, shortened: (§1)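 Arrays were curated from the Consortium for Functional Glycomics database, 3228 in total, and kept only where the protein sequence was available. Binding is expressed as a within-array Z-score. This score was averaged across arrays of the same protein sequence at different concentrations or buffers and across linkers, and negative values can be read as non-binding.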
# [2] = molecular target: GlcNAc(b1-4)[GlcNAc(b1-6)]GalNAc
# Procedure, shortened: as §1
# [3] = molecular target: GlcNAc(b1-6)Gal(b1-4)GlcNAc
# Procedure, shortened: as §1
# GlcNAc(b1-6)GalNAc = molecular target: GlcNAc(b1-6)GalNAc
# Procedure, shortened: as §1
# [4] = molecular target: GlcNAc6S(b1-3)Gal(b1-4)GlcNAc
# Procedure, shortened: as §1
# Kdn(a2-3)Gal(b1-3)GalNAc = molecular target: Kdn(a2-3)Gal(b1-3)GalNAc
# Procedure, shortened: as §1
# Kdn(a2-3)Gal(b1-3)GlcNAc = molecular target: Kdn(a2-3)Gal(b1-3)GlcNAc
# Procedure, shortened: as §1
# Kdn(a2-3)Gal(b1-4)Glc = molecular target: Kdn(a2-3)Gal(b1-4)Glc
# Procedure, shortened: as §1
# Kdn(a2-3)Gal(b1-4)GlcNAc = molecular target: Kdn(a2-3)Gal(b1-4)GlcNAc
# Procedure, shortened: as §1
# [5] = molecular target: Kdn(a2-3)Gal(b1-4)[Fuc(a1-3)]GlcNAc
# Procedure, shortened: as §1
# Kdn(a2-6)Gal(b1-4)GlcNAc = molecular target: Kdn(a2-6)Gal(b1-4)GlcNAc
# Procedure, shortened: as §1
# [6] = molecular target: Man(a1-2)Man(a1-2)Man(a1-3)Man
# Procedure, shortened: as §1
# [7] = molecular target: Man(a1-2)Man(a1-2)Man(a1-6)[Man(a1-3)]Man
# Procedure, shortened: as §1
# Man(a1-2)Man(a1-3)Man = molecular target: Man(a1-2)Man(a1-3)Man
# Procedure, shortened: as §1
# [8] = molecular target: Man(a1-2)Man(a1-3)[Man(a1-2)Man(a1-6)]Man
# Procedure, shortened: as §1
# [9] = molecular target: Man(a1-2)Man(a1-3)[Man(a1-2)Man(a1-6)]Man(a1-6)[Man(a1-2)Man(a1-2)Man(a1-3)]Man
# Procedure, shortened: as §1
# [10] = molecular target: Man(a1-2)Man(a1-3)[Man(a1-2)Man(a1-6)]Man(a1-6)[Man(a1-2)Man(a1-2)Man(a1-3)]Man(b1-4)GlcNAc(b1-4)GlcNAc
# Procedure, shortened: as §1
# [11] = molecular target: Man(a1-2)Man(a1-3)[Man(a1-6)]Man(a1-6)[Man(a1-2)Man(a1-3)]Man(b1-4)GlcNAc(b1-4)GlcNAc
# Procedure, shortened: as §1
# [12] = molecular target: Man(a1-2)Man(a1-6)[Man(a1-3)]Man(a1-6)[Man(a1-2)Man(a1-2)Man(a1-3)]Man
# Procedure, shortened: as §1
# [13] = molecular target: Man(a1-2)Man(a1-6)[Man(a1-3)]Man(a1-6)[Man(a1-2)Man(a1-2)Man(a1-3)]Man(b1-4)GlcNAc(b1-4)GlcNAc
# Procedure, shortened: as §1
# Man(a1-3)[Man(a1-6)]Man = molecular target: Man(a1-3)[Man(a1-6)]Man
# Procedure, shortened: as §1
# [14] = molecular target: Man(a1-3)[Man(a1-6)]Man(a1-6)[Man(a1-2)Man(a1-3)]Man(b1-4)GlcNAc(b1-4)GlcNAc
# Procedure, shortened: as §1
# [15] = molecular target: Man(a1-3)[Man(a1-6)]Man(a1-6)[Man(a1-3)]Man
# Procedure, shortened: as §1
# [16] = molecular target: Man(a1-3)[Man(a1-6)]Man(a1-6)[Man(a1-3)]Man(b1-4)GlcNAc(b1-4)GlcNAc
# Procedure, shortened: as §1
# [17] = molecular target: Man(a1-3)[Man(a1-6)]Man(b1-4)GlcNAc(b1-4)GlcNAc
# Procedure, shortened: as §1
# [18] = molecular target: Man(a1-3)[Man(a1-6)]Man(b1-4)GlcNAc(b1-4)[Fuc(a1-6)]GlcNAc
# Procedure, shortened: as §1
# Man(a1-6)Man = molecular target: Man(a1-6)Man
# Procedure, shortened: as §1
# Man(b1-4)GlcNAc = molecular target: Man(b1-4)GlcNAc
# Procedure, shortened: as §1
# MurNAc(b1-4)GlcNAc = molecular target: MurNAc(b1-4)GlcNAc
# Procedure, shortened: as §1
# Neu5Ac(a2-3)Gal = molecular target: Neu5Ac(a2-3)Gal
# Procedure, shortened: as §1
# [19] = molecular target: Neu5Ac(a2-3)Gal(b1-3)GalNAc
# Procedure, shortened: as §1
# [20] = molecular target: Neu5Ac(a2-3)Gal(b1-3)GalNAc(b1-3)Gal(a1-4)Gal(b1-4)Glc
# Procedure, shortened: as §1
# [21] = molecular target: Neu5Ac(a2-3)Gal(b1-3)GalNAc(b1-4)[Neu5Ac(a2-3)]Gal(b1-4)Glc
# Procedure, shortened: as §1
# [22] = molecular target: Neu5Ac(a2-3)Gal(b1-3)GalNAc(b1-4)[Neu5Ac(a2-8)Neu5Ac(a2-3)]Gal(b1-4)Glc
# Procedure, shortened: as §1
# [23] = molecular target: Neu5Ac(a2-3)Gal(b1-3)GalNAc6S
# Procedure, shortened: as §1
# [24] = molecular target: Neu5Ac(a2-3)Gal(b1-3)GlcNAc
# Procedure, shortened: as §1
# [25] = molecular target: Neu5Ac(a2-3)Gal(b1-3)GlcNAc(b1-2)Man
# Procedure, shortened: as §1
# [26] = molecular target: Neu5Ac(a2-3)Gal(b1-3)GlcNAc(b1-2)Man(a1-3)[GlcNAc(b1-4)][Neu5Ac(a2-3)Gal(b1-3)GlcNAc(b1-2)Man(a1-6)]Man(b1-4)GlcNAc(b1-4)GlcNAc
# Procedure, shortened: as §1
# [27] = molecular target: Neu5Ac(a2-3)Gal(b1-3)GlcNAc(b1-2)Man(a1-3)[Neu5Ac(a2-3)Gal(b1-3)GlcNAc(b1-2)Man(a1-6)]Man(b1-4)GlcNAc(b1-4)GlcNAc
# Procedure, shortened: as §1
# [28] = molecular target: Neu5Ac(a2-3)Gal(b1-3)GlcNAc(b1-2)[Neu5Ac(a2-3)Gal(b1-3)GlcNAc(b1-4)]Man(a1-6)[Neu5Ac(a2-3)Gal(b1-3)GlcNAc(b1-2)Man(a1-3)]Man(b1-4)GlcNAc(b1-4)GlcNAc
# Procedure, shortened: as §1
# [29] = molecular target: Neu5Ac(a2-3)Gal(b1-3)GlcNAc(b1-3)Gal(b1-3)GlcNAc
# Procedure, shortened: as §1
# [30] = molecular target: Neu5Ac(a2-3)Gal(b1-3)GlcNAc(b1-3)Gal(b1-4)GlcNAc
# Procedure, shortened: as §1
# [31] = molecular target: Neu5Ac(a2-3)Gal(b1-3)GlcNAc(b1-3)GalNAc
# Procedure, shortened: as §1
# [32] = molecular target: Neu5Ac(a2-3)Gal(b1-3)GlcNAc(b1-4)Gal(b1-4)Glc
# Procedure, shortened: as §1
# [33] = molecular target: Neu5Ac(a2-3)Gal(b1-3)GlcNAc(b1-6)GalNAc
# Procedure, shortened: as §1
binder,measurement,setting,value
B1,glycan array binding signal (z-score),[1],-0.718
same,glycan array binding signal (z-score),[2],-0.808
same,glycan array binding signal (z-score),[3],-0.206
same,glycan array binding signal (z-score),GlcNAc(b1-6)GalNAc,-0.534
same,glycan array binding signal (z-score),[4],0.34
same,glycan array binding signal (z-score),Kdn(a2-3)Gal(b1-3)GalNAc,-0.229
same,glycan array binding signal (z-score),Kdn(a2-3)Gal(b1-3)GlcNAc,-0.41
same,glycan array binding signal (z-score),Kdn(a2-3)Gal(b1-4)Glc,-1.27
same,glycan array binding signal (z-score),Kdn(a2-3)Gal(b1-4)GlcNAc,-0.337
same,glycan array binding signal (z-score),[5],-0.717
same,glycan array binding signal (z-score),Kdn(a2-6)Gal(b1-4)GlcNAc,-0.277
same,glycan array binding signal (z-score),[6],-0.497
same,glycan array binding signal (z-score),[7],-0.267
same,glycan array binding signal (z-score),Man(a1-2)Man(a1-3)Man,-0.533
same,glycan array binding signal (z-score),[8],-0.16
same,glycan array binding signal (z-score),[9],-0.197
same,glycan array binding signal (z-score),[10],0.089
same,glycan array binding signal (z-score),[11],-0.399
same,glycan array binding signal (z-score),[12],-0.65
same,glycan array binding signal (z-score),[13],0.243
same,glycan array binding signal (z-score),Man(a1-3)[Man(a1-6)]Man,-0.191
same,glycan array binding signal (z-score),[14],0.746
same,glycan array binding signal (z-score),[15],-0.048
same,glycan array binding signal (z-score),[16],-0.557
same,glycan array binding signal (z-score),[17],-0.355
same,glycan array binding signal (z-score),[18],0.077
same,glycan array binding signal (z-score),Man(a1-6)Man,-0.439
same,glycan array binding signal (z-score),Man(b1-4)GlcNAc,-0.202
same,glycan array binding signal (z-score),MurNAc(b1-4)GlcNAc,-0.477
same,glycan array binding signal (z-score),Neu5Ac(a2-3)Gal,-0.521
same,glycan array binding signal (z-score),[19],-0.437
same,glycan array binding signal (z-score),[20],-0.235
same,glycan array binding signal (z-score),[21],-0.343
same,glycan array binding signal (z-score),[22],-0.807
same,glycan array binding signal (z-score),[23],-0.48
same,glycan array binding signal (z-score),[24],0.332
same,glycan array binding signal (z-score),[25],-0.191
same,glycan array binding signal (z-score),[26],0.265
same,glycan array binding signal (z-score),[27],3.69
same,glycan array binding signal (z-score),[28],0.146
same,glycan array binding signal (z-score),[29],-0.53
same,glycan array binding signal (z-score),[30],-0.462
same,glycan array binding signal (z-score),[31],-0.205
same,glycan array binding signal (z-score),[32],-0.533
same,glycan array binding signal (z-score),[33],-0.08

# Reference: the supplement of paper PMC8728848
